# Experimental data from PubChem BioAssay AID1745853 (National Center for Advancing Translational Sciences (NCATS), 2022).
# Values joined by “and” are separate entries in the source; they are usually repeats but may differ in a detail not shown here. Identical values can stand only once. This is one part of the list. The main result of the screen is listed elsewhere. These columns were measured beside it and carry no call.
# Columns and labels:
# Experiment in all cases: Primary Screen for Target Class Profiling of Small Molecule Inhibitors of Methyltransferases
# [1] = biological target: Glycine N-methyltransferase (Homo sapiens) (UniProt Q14749); settings: purified enzyme, MTase-Glo SAH luminescence; measured here: GNMT inhibition; at 40 µM; stronger effect = lower value
# How it was run: (§1)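 Each enzyme was assayed with SAM and its substrate. SAH formation detected by MTase-Glo luminescence; single-point 40 uM screen[…].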
# [2] = biological target: Guanidinoacetate N-methyltransferase (Homo sapiens) (UniProt Q14353); settings: purified enzyme, MTase-Glo SAH luminescence; measured here: GAMT inhibition; at 40 µM; stronger effect = lower value
# How it was run: as §1
# [3] = biological target: Histamine N-methyltransferase (Homo sapiens) (UniProt P50135); settings: purified enzyme, MTase-Glo SAH luminescence; measured here: HNMT inhibition; at 40 µM; stronger effect = lower value
# How it was run: as §1
# [4] = biological target: Nicotinamide N-methyltransferase (Homo sapiens) (UniProt P40261); settings: purified enzyme, MTase-Glo SAH luminescence; measured here: NNMT inhibition; at 40 µM; stronger effect = lower value
# How it was run: as §1
# [5] = biological target: Phenylethanolamine N-methyltransferase (Homo sapiens) (UniProt P11086); settings: purified enzyme, MTase-Glo SAH luminescence; measured here: PNMT inhibition; at 40 µM; stronger effect = lower value
# How it was run: as §1
# % is set by controls: 0 for no effect and ±100 for the full control effect.
SMILES,"activity change, negative = inhibition [1]","activity change, negative = inhibition [2]","activity change, negative = inhibition [3]","activity change, negative = inhibition [4]","activity change, negative = inhibition [5]"
CCOc1ccc(Oc2ccc(OCc3cc(F)ccc3F)cc2)c(N)c1,1.93%,3.25%,10.8%,-16.7%,3.64%
COc1ccc(C2c3cccn3-c3ccccc3CN2C(=O)Nc2ccccc2)cc1 (stereo not given),4.08%,0.092%,-0.631%,-3.26%,3.1%
CCc1ccc(NC(=O)N2Cc3ccccc3-n3cccc3C2C(C)C)cc1 (stereo not given),0.784%,0%,10.1%,9.58%,7.27%
COc1cccc(CNC(=O)N2Cc3ccccc3-n3cccc3C2c2ccccc2)c1 (stereo not given),4.08%,0.246%,-2.35%,-6.29%,0.689%
Cc1cccc(C2c3cccn3-c3ccccc3CN2C(=O)Nc2cccc(C)c2C)c1 (stereo not given),7.59%,0.677%,-1.59%,-1.06%,3.6%
CCOC(=O)Cc1ccc(NC(=O)N2Cc3ccccc3-n3cccc3C2C(C)C)cc1 (stereo not given),-1.06%,4.48%,-0.439%,-1.64%,0.444%
CCCN1CC[C@@H]2c3cc(O)ccc3CC[C@@H]21,-1.8%,8.08%,-70%,-9.26%,-2.17%
O=C(Nc1ccc2c(c1)OCCO2)N1Cc2ccccc2-n2cccc2C1c1ccccc1 (stereo not given),4.86%,6.29%,-1.53%,-4.95%,0.898%
O=c1[nH]c2ccccc2n1C1CCN(CCCC(c2ccc(F)cc2)c2ccc(F)cc2)CC1,-1.28% and -10.1%,-11.4% and 6.14%,2.3% and -6.37%,-35.8% and -14.2%,-6.73% and 4%
N#Cc1ccc([C@H]2CCCC[C@H]2O)cc1C(F)(F)F,6.65%,4.2%,5.45%,-9.42%,-10.6%
Cn1nc(C2CCCNC2)n(C2CCCC2)c1=O (stereo not given),-4.3%,-2.73%,-5.01%,0.039%,2.13%
COc1cc2c(cc1O)C1(C)CCC(O)C(C)(C)C1CC2=O (stereo not given),-0.426%,-4.07%,-5.63%,-15.2%,-0.72%
Cc1ccc(C)c(NC(=O)N2Cc3ccccc3-n3cccc3C2C(C)C)c1 (stereo not given),-5.93%,2.34%,2.36%,0.437%,1.16%
CCOc1ccc(C2c3cccn3-c3ccccc3CN2C(=O)NCc2ccccc2)cc1 (stereo not given),1.33%,1.82%,3.27%,1.67%,4.3%
CC(C)C1c2cccn2-c2ccccc2CN1C(=O)Nc1ccccc1C(F)(F)F (stereo not given),-0.302%,4.44%,2.12%,-2.36%,2.01%
CCc1ccc(NC(=O)N2Cc3ccccc3-n3cccc3C2c2cccs2)cc1 (stereo not given),12.3%,2.25%,6.81%,5.32%,8.85%
CCC1c2cccn2-c2ccccc2CN1C(=O)Nc1ccc(C)cc1C (stereo not given),-0.931%,3.41%,-0.537%,-3.42%,1.98%
CC(C)NC(=O)N1Cc2ccccc2-n2cccc2C1C (stereo not given),10.3%,0%,4.26%,-3.19%,5.75%
CC[C@H]1CN2CC[C@H]1C[C@H]2[C@H](O)c1ccnc2ccc(OC)cc12,-0.563%,1.01%,-7.52%,-18.1%,5.73%
COc1ccccc1NC(=O)N1Cc2ccccc2-n2cccc2C1c1ccc(N(C)C)cc1 (stereo not given),1.35%,3.54%,-8.87%,-2.52%,-0.044%
COc1ccc(C2c3cccn3-c3ccccc3CN2C(=O)Nc2ccc(C)c(C)c2)cc1OC (stereo not given),9.55%,4.15%,1.82%,-0.526%,3.24%

SMILES,"activity change, negative = inhibition [1]","activity change, negative = inhibition [2]","activity change, negative = inhibition [3]","activity change, negative = inhibition [4]","activity change, negative = inhibition [5]"
CCC1CN2CCc3cc(OC)c(OC)cc3C2CC1CC1=NCCc2cc(O)c(OC)cc21 (stereo not given),-8.94%,-4.62%,-8.77%,-17.9%,-6.09%
O=c1ccc2[nH]cc(C3=CCNCC3)c2[nH]1,-13.8%,7.99%,-55.1%,-10.5%,-10.4%
CCc1ccc(NC(=O)N2Cc3ccccc3-n3cccc3C2C)cc1 (stereo not given),-2.57%,0.307%,-2.48%,-6.05%,-1.28%
CCOc1ccc(C2c3cccn3-c3ccccc3CN2C(=O)Nc2ccc(OC)c(OC)c2)cc1 (stereo not given),-4.62%,3.12%,0.948%,-0.8%,-2.71%
CCOC(=O)c1ncn2c1CN(C)C(=O)c1c(I)cccc1-2,3.24%,-0.145%,11.2%,-8.75%,8.5%
COc1ccc(Cl)cc1NC(=O)N1Cc2ccccc2-n2cccc2C1c1ccc(F)cc1 (stereo not given),-1.65%,5.51%,7.9%,1.95%,9.65%
COc1cc(CCNCc2ccccc2O)c(OC)cc1C#N,-6.85%,-17.6%,-27.1%,-29.4%,-5.48%
CC(C)CCNC(=O)N1Cc2ccccc2-n2cccc2C1c1cccc(Cl)c1 (stereo not given),13.6%,6.38%,5.84%,6.17%,9.95%
CCCCC1C(=O)NC(=O)N(C2CCCCC2)C1=O (stereo not given),-2.19%,4.56%,-1.13%,-15.1%,-5.61%
COC(=O)CCNC(=O)N1Cc2ccccc2-n2cccc2C1c1ccc(N(C)C)cc1 (stereo not given),14.3%,3.42%,6.17%,6.07%,8.44%
Oc1ccc2c3c1O[C@H]1c4oc5ccccc5c4C[C@@]4(O)C(C2)N(CC2CC2)CCC314 (stereo not given in full),-7.68%,1.43%,-5.28%,-14.2%,-3.88%
C=C(CO)C(=O)O[C@H]1CC(=C)[C@@H]2C[C@H](O)C(=C)[C@@H]2[C@H]2OC(=O)C(=C)[C@@H]21,3.34%,-14.2%,8.03%,-9.77%,3.53%
CC(N)Cc1c[nH]c2ccccc12 (stereo not given),-1.26%,1.81%,-24.4%,-15.1%,-2.72%
COc1ccc(NC(=O)N2Cc3ccccc3-n3cccc3C2c2ccccc2)cc1OC (stereo not given),4.44%,0%,-4.58%,-2.2%,1.22%
COC(=O)CCNC(=O)N1Cc2ccccc2-n2cccc2C1c1ccc(F)cc1 (stereo not given),-1.51%,1.38%,-0.476%,-1.97%,2.48%
O=C(Cc1ccc(Cl)cc1)N1CCN(C2CCN(Cc3ccccn3)C2=O)CC1 (stereo not given),-4.04%,-6.43%,-0.825%,-4.3%,-7.68%
CCCc1nc(C)cc(N2CCC3(CC2)CNC(C(=O)O)C3)n1 (stereo not given),-6.46%,-5.93%,-10%,2.45%,-8.29%
C=C1C2(C)CC3C(C)(O)C4=CC(=O)OC(C)(C)C4=CCC3(C)C13C(=O)OC(C)C3(O)C2=O (stereo not given),-1.11%,-10.1%,2.45%,-19.4%,-6.33%
CCN1CC2(COC)C3[C@@H](OC)C4C1C3(C1C[C@]3(O)[C@H](OC(=O)c5ccccc5)C1[C@]4(OC(C)=O)[C@@H](O)[C@@H]3OC)[C@H](OC)C[C@H]2O (stereo not given in full),4.33%,9.89%,7.17%,-5.77%,3.96%
O=C(Nc1ccccc1F)N1Cc2ccccc2-n2cccc2C1c1ccccc1 (stereo not given),4.62%,4.9%,4.65%,-2%,-9.57%
CN(C)CC(=O)Nc1ccc2n(c1=O)C[C@H]1C[C@@H]2CN(C(=O)c2cccnc2)C1,-3.78%,-10.3%,-3.88%,-10.8%,-6.18%

SMILES,"activity change, negative = inhibition [1]","activity change, negative = inhibition [2]","activity change, negative = inhibition [3]","activity change, negative = inhibition [4]","activity change, negative = inhibition [5]"
CS(=O)(=O)N1C[C@H]2CCN(Cc3ccncc3F)C[C@H]21,1.31%,-1.67%,2.7%,-3.07%,-7.68%
C/C=C(/C)C1C=CC2CC(C)CC(C)C2C1/C(O)=C1\C(=O)NC(CC(C)(O)C(=O)O)C1=O (stereo not given),4.69%,8.04%,6.11%,-5.4%,5.32%
Cc1sc2c(c1C)C(c1ccc(Cl)cc1)=N[C@@H](CC(=O)Nc1ccc(O)cc1)c1nnc(C)n1-2,-7.92% and -30.9%,-8.9% and 7.51%,2.8% and -9.91%,-25.6% and -39.8% and -47%,-2.27% and 28.4% and 1.27%
CC1c2cccn2-c2ccccc2CN1C(=O)Nc1cccc2c1CCCC2 (stereo not given),6.02%,3.98%,-2.03%,-5.29%,0.885%
CCc1c(C(=O)C(N)=O)c2c(OCC(=O)O)cccc2n1Cc1ccccc1,-0.801%,-15.1%,-3.1%,-23.5%,-16.2%
Cc1[nH]nc2ccc(-c3cncc(OC[C@@H](N)Cc4c[nH]c5ccccc45)c3)cc12,-25.1%,3.17%,-50.5%,-48.5%,-21.1%
CC(=O)O[C@H]1C[C@@H](C)O[C@H]2O[C@@H]3CC4CC[C@@H]5C(CC[C@]6(C)[C@@H](C7=CC(=O)OC7)CC[C@]56O)[C@@]4(C=O)C[C@H]3O[C@]21O (stereo not given in full),2.15%,4.27%,5.39%,-8.31%,0.116%
Cc1ccccc1NC(=O)N1Cc2ccccc2-n2cccc2C1C (stereo not given),5.64%,0%,-0.69%,1.16%,6.22%
CSc1ccc(C2c3cccn3-c3ccccc3CN2C(=O)Nc2cccc(Cl)c2C)cc1 (stereo not given),0.147%,1.23%,3.23%,0.735%,4.9%
N#CC1(c2ccccc2)CCN(C(=O)c2cn(-c3ccccc3)nn2)CC1,-7.94%,-5.18%,-3.41%,-11%,-7.7%
Cc1cccc(NC(=O)N2Cc3ccccc3-n3cccc3C2c2ccccc2)c1C (stereo not given),6.88%,0%,-2.09%,0.636%,5.09%
CNCc1cn(C[C@H]2CC3CCN2C[C@@H]3C(=O)Nc2ccccc2)nn1 (stereo not given in full),-7.97%,-7.47%,-5.29%,-10.1%,-2.55%
Cc1ccc(CNC(=O)N2Cc3ccccc3-n3cccc3C2c2ccccc2)cc1 (stereo not given),8.73%,0%,0.488%,3.41%,6.47%
Clc1ccc(OCC2=NCCN2)cc1Cl,3.76%,6.01%,1.18%,-11.1%,-10.4%
Cc1o[nH]c(=O)c1CC(N)C(=O)O (stereo not given),-1.19%,7.88%,5.62%,-6.56%,0.706%
CCOc1ccc(C2c3cccn3-c3ccccc3CN2C(=O)Nc2ccccc2C(F)(F)F)cc1 (stereo not given),-1.1%,0%,6.46%,11.3%,8.68%
COc1ccc(C2c3cccn3-c3ccccc3CN2C(=O)Nc2cc(F)ccc2F)cc1OC (stereo not given),6.89%,4.33%,1.46%,-5.41%,2.4%
Cc1ccc(NC(=O)N2Cc3ccccc3-n3cccc3C2c2ccccc2Cl)c(C)c1 (stereo not given),2.89%,-0.816%,-7.56%,-1.11%,-0.881%
COc1ccc(C2c3cccn3-c3ccccc3CN2C(=O)Nc2ccccc2C)cc1 (stereo not given),-5.23%,0.384%,2.9%,1.94%,6.88%
CC1=CC2OC3[C@H](O)C[C@@](C)([C@]34CO4)[C@@]2(CO)[C@H](O)C1=O (stereo not given in full),2.59%,-8.62%,0.815%,-17.9%,0.125%
